Results taken from the supplement of paper PMC9446081.
Out of some 39,000 compounds screened, about 220 (0.56%) showed activity. This is one part of the list.

tested on: Escherichia coli K-12 BW25113; assay: relative growth (OD600 normalised to plate interquartile mean) (fraction); higher = less growth inhibition, active = 0.2 or less; settings: 50 µM; LB; incubation time: overnight (16-24 h)
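Further: static incubation at 37 °C against the wild-type strain, values averaged over two biological replicates.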

Row | SMILES | relative growth
1 | COc1ccc(C#Cc2cnc3c(c2)C(=O)N([C@@H](C)CO)C[C@@H](C)[C@H](CN(C)C(=O)CN(C)C)O3)cc1 | inactive: 0.994
2 | C[C@H](CO)N1C[C@H](C)[C@H](CN(C)CC2CCCCC2)OCCCC[C@H](C)Oc2ccc(NC(=O)Nc3ccc(C(F)(F)F)cc3)cc2C1=O | inactive: 0.945
3 | Cc1ccc(S(=O)(=O)Nc2cccc3c2O[C@H](CN(C)S(C)(=O)=O)[C@@H](C)CN([C@H](C)CO)C3=O)cc1 | inactive: 0.981
4 | C[C@@H]1CN([C@@H](C)CO)C(=O)c2cc(NC(=O)C3CCCCC3)ccc2O[C@@H](C)CCCCO[C@@H]1CN(C)S(=O)(=O)c1ccccc1 | inactive: 1.03
5 | C[C@@H]1CCCCO[C@@H](CN(C)C)[C@@H](C)CN([C@H](C)CO)C(=O)c2cc(NC(=O)CCCN(C)C)ccc2O1 | inactive: 0.997
6 | COc1ccc(CN(C)C[C@@H]2Oc3c(NC(=O)c4cnccn4)cccc3C(=O)N([C@H](C)CO)C[C@H]2C)cc1 | inactive: 1.03
7 | C[C@@H]1CN([C@H](C)CO)C(=O)c2cccc(NC(=O)c3nc4ccccc4s3)c2O[C@H]1CN(C)C(=O)Nc1ccc(F)cc1 | inactive: 1.02
8 | C[C@@H]1CN([C@@H](C)CO)C(=O)c2cc(NS(=O)(=O)c3cccs3)ccc2O[C@@H](C)CCCCO[C@H]1CN(C)S(=O)(=O)c1cn(C)cn1 | inactive: 1.02
9 | C[C@@H]1CN([C@H](C)CO)C(=O)c2cccc(NS(C)(=O)=O)c2O[C@@H]1CN(C)C(=O)Nc1ccc(C(F)(F)F)cc1 | inactive: 1.03
10 | CC(C)(C)[S@](=O)N1Cc2cc(C(=O)NCC(F)(F)F)nc(-c3cccc(-c4cccc(F)c4)c3)c2[C@@H]1CCO | inactive: 0.975
11 | CN1CCN(C(=O)C[C@H]2CC[C@H]3[C@H](COc4ccc(NC(=O)c5cccs5)cc4C(=O)N3C)O2)CC1 | inactive: 1.02
12 | COc1ccc(NC(=O)Nc2ccc3c(c2)C(=O)N([C@@H](C)CO)C[C@@H](C)[C@H](CN(C)C(=O)NC(C)C)OCCCC[C@H](C)O3)cc1 | inactive: 0.996
13 | C[C@H]1CN([C@@H](C)CO)C(=O)c2cc(C#Cc3ccc(F)cc3)cnc2O[C@H]1CN(C)Cc1ccccn1 | inactive: 1.01
14 | Nc1ccn(C2OC(CO)C(O)C2O)c(=O)n1 (stereo unspecified) | inactive: 0.903
15 | C[C@H](CO)N1C[C@H](C)[C@H](CN(C)CC2CCCCC2)Oc2c(NC(=O)c3cnccn3)cccc2C1=O | inactive: 1
16 | C[C@@H]1CCCCO[C@H](CN(C)C(=O)NC2CCCCC2)[C@@H](C)CN([C@H](C)CO)C(=O)c2cc(NC(=O)NC3CCCCC3)ccc2O1 | inactive: 0.994
17 | COc1ccc(NC(=O)N(C)C[C@@H]2OCCCC[C@H](C)Oc3ccc(NC(=O)Nc4cccc5ccccc45)cc3C(=O)N([C@@H](C)CO)C[C@H]2C)cc1 | inactive: 1.03
18 | C[C@@H]1CN([C@H](C)CO)C(=O)c2cc(NC(=O)CCC(F)(F)F)ccc2O[C@@H](C)CCCCO[C@H]1CN(C)S(=O)(=O)c1ccc(F)cc1 | inactive: 1.04

Row | SMILES | relative growth
19 | C[C@H](CO)N1C[C@H](C)[C@H](CN(C)C(=O)Nc2ccc(C(F)(F)F)cc2)OCCCC[C@H](C)Oc2ccc(NC(=O)c3ccccc3)cc2C1=O | inactive: 0.991
20 | O=C1N(Cc2ccccc2)Cc2ccccc2C[C@]12N=C(c1ccc(OCCCO)cc1)O[C@@H]2c1ccccc1 | inactive: 1.02
21 | Cc1ccc(S(=O)(=O)Nc2ccc3c(c2)C(=O)N([C@H](C)CO)C[C@@H](C)[C@H](CN(C)C(=O)C2CCCCC2)OCCCC[C@H](C)O3)cc1 | inactive: 0.989
22 | COc1ccc(CN(C)C[C@H]2OCCCC[C@H](C)Oc3ccc(NS(=O)(=O)c4ccccc4)cc3C(=O)N([C@H](C)CO)C[C@H]2C)cc1 | inactive: 0.995
23 | C[C@@H]1CN([C@@H](C)CO)S(=O)(=O)c2ccc(C#CC3(O)CCCC3)cc2O[C@@H]1CN(C)C(=O)Cc1ccncc1 | inactive: 1.01
24 | C[C@H](CO)N1C[C@H](C)[C@H](CN(C)S(=O)(=O)c2ccccc2)Oc2ncc(C#Cc3ccc(F)cc3)cc2C1=O | inactive: 1.01
25 | COc1ccc(S(=O)(=O)Nc2ccc3c(c2)C(=O)N([C@@H](C)CO)C[C@H](C)[C@H](CN(C)CC2CCCCC2)OCCCC[C@@H](C)O3)cc1 | inactive: 0.982
26 | O=C(CCCCCCC(=O)Nc1ccc(C(=O)NCCOCCOCCNC(=O)c2ccc(NC(=O)CCCCCCC(=O)NO)cc2)cc1)NO | inactive: 0.977
27 | Cc1ccc(S(=O)(=O)Nc2ccc3c(c2)C(=O)N([C@@H](C)CO)C[C@H](C)[C@H](CN(C)C(=O)Nc2ccccc2)OCCCC[C@H](C)O3)cc1 | inactive: 0.997
28 | C[C@@H]1CN([C@@H](C)CO)C(=O)Cc2cc(NC(=O)C3CC3)ccc2O[C@H]1CN(C)Cc1ccc(Oc2ccccc2)cc1 | inactive: 0.967
29 | COc1cc(C)ccc1S(=O)(=O)N1[C@@H]2CC[C@@H](C2)[C@H]1c1nc2cccc(OCc3ccc(F)cc3)c2[nH]1 | inactive: 1.04
30 | CCNC(=O)C[C@H]1CC[C@H]2[C@@H](COc3ccc(NS(=O)(=O)c4ccccc4C)cc3C(=O)N2C)O1 | inactive: 0.96
31 | Cc1ccc(S(=O)(=O)N(C)C[C@@H]2OCCCC[C@@H](C)Oc3ccc(NC(=O)CCC(F)(F)F)cc3C(=O)N([C@H](C)CO)C[C@@H]2C)cc1 | inactive: 1.03
32 | COc1cccc(C#Cc2cnc3c(c2)C(=O)N([C@@H](C)CO)C[C@@H](C)[C@@H](CN(C)C(=O)C2CCC2)O3)c1 | inactive: 1.01
33 | O=C(NCCN1CCOCC1)C(=O)NC[C@H]1OCCN1S(=O)(=O)c1ccc(F)cc1 | inactive: 1.01
34 | C[C@H](CO)N1C[C@H](C)[C@@H](CN(C)CC2CC2)Oc2ccc(NS(=O)(=O)c3ccc(F)cc3)cc2C1=O | inactive: 1.01
35 | CC(C)NC(=O)N(C)C[C@@H]1OCCCC[C@@H](C)Oc2ccc(NC(=O)Nc3cccc4ccccc34)cc2C(=O)N([C@H](C)CO)C[C@@H]1C | inactive: 0.997
36 | C[C@H]1CCCCO[C@H](CN(C)Cc2ccncc2)[C@@H](C)CN([C@@H](C)CO)C(=O)c2cc(NC(=O)Nc3ccc(C(F)(F)F)cc3)ccc2O1 | inactive: 0.992
